Reference: article PMC12820563
The other results are listed elsewhere or left out. The list includes weakly bound sequences.

Target: T1, MBP-FoxP3dN (UniProt Q99JB6)
T1 sequence: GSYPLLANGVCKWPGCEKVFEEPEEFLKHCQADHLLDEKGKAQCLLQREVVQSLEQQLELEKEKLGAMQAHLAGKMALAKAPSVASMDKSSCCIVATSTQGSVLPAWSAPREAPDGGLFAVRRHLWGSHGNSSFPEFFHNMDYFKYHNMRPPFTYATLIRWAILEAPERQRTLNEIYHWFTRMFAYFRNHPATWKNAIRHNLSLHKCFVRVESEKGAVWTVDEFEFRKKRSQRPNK
Assay: PD-seq (MBP pull-down with sequencing)
Settings: 20 mM Tris-HCl pH 7.5, 100 mM NaCl, 1.5 mM MgCl2, 0.4 uM protein, 0.1 uM dsDNA library, 30 min, room temperature, amylose pull-down; high values mean tight binding; double strand, one strand shown

Sequence | binding signal (RPM ratio (pull-down/input))
GATGATTGTTCTCCCAGCTGATGAATTGCCACGGTCGAGTAAACAAATTTTCCTAATCTTTCTGTTCAAGCGCCATCTAC | 0.641
GATGATTGTTCTCCCAGCTGATGAATTAGACGTTTCGAGTAAACAAATTTTCCTAATCTTTCTGTTCAAGCGCCATCTAC | 0.64
GATGATTGTTCTCCCAGCTGATGAATTATCAGTGTCGAGTAAACAAATTTTCCTAATCTTTCTGTTCAAGCGCCATCTAC | 0.455
GATGATTGTTCTCCCAGCTGATGAATTCATGCAGTCGAGTAAACAAATTTTCCTAATCTTTCTGTTCAAGCGCCATCTAC | 0.842
GATGATTGTTCTCCCAGCTGATGAATTAGAGGAATCGAGTAAACAAATTTTCCTAATCTTTCTGTTCAAGCGCCATCTAC | 0.196
GATGATTGTTCTCCCAGCTGATGAATTAGGACCGTCGAGTAAACAAATTTTCCTAATCTTTCTGTTCAAGCGCCATCTAC | 0.34
GATGATTGTTCTCCCAGCTGATGAATTGACCCCATCGAGTAAACAAATTTTCCTAATCTTTCTGTTCAAGCGCCATCTAC | 0.381
GATGATTGTTCTCCCAGCTGATGAATTAGGATAGTCGAGTAAACAAATTTTCCTAATCTTTCTGTTCAAGCGCCATCTAC | 0.432
GATGATTGTTCTCCCAGCTGATGAATTTAACATCTCGAGTAAACAAATTTTCCTAATCTTTCTGTTCAAGCGCCATCTAC | 1.3
GATGATTGTTCTCCCAGCTGATGAATTGCAACACTCGAGTAAACAAATTTTCCTAATCTTTCTGTTCAAGCGCCATCTAC | 3.16
GATGATTGTTCTCCCAGCTGATGAATTAATGTACTCGAGTAAACAAATTTTCCTAATCTTTCTGTTCAAGCGCCATCTAC | 2.12
GATGATTGTTCTCCCAGCTGATGAATTTGCGAACTCGAGTAAACAAATTTTCCTAATCTTTCTGTTCAAGCGCCATCTAC | 0.377
GATGATTGTTCTCCCAGCTGATGAATTCTTGACTTCGAGTAAACAAATTTTCCTAATCTTTCTGTTCAAGCGCCATCTAC | 0.38
GATGATTGTTCTCCCAGCTGATGAATTCTCTGAATCGAGTAAACAAATTTTCCTAATCTTTCTGTTCAAGCGCCATCTAC | 0.169
GATGATTGTTCTCCCAGCTGATGAATTCAAGGCTTCGAGTAAACAAATTTTCCTAATCTTTCTGTTCAAGCGCCATCTAC | 0.339
GATGATTGTTCTCCCAGCTGATGAATTAGGAGTATCGAGTAAACAAATTTTCCTAATCTTTCTGTTCAAGCGCCATCTAC | 0.632
GATGATTGTTCTCCCAGCTGATGAATTTCGGACTTCGAGTAAACAAATTTTCCTAATCTTTCTGTTCAAGCGCCATCTAC | 0.39
GATGATTGTTCTCCCAGCTGATGAATTAAGTAGCTCGAGTAAACAAATTTTCCTAATCTTTCTGTTCAAGCGCCATCTAC | 0.874
GATGATTGTTCTCCCAGCTGATGAATTCCAATATTCGAGTAAACAAATTTTCCTAATCTTTCTGTTCAAGCGCCATCTAC | 0.625
GATGATTGTTCTCCCAGCTGATGAATTTTCAGAGTCGAGTAAACAAATTTTCCTAATCTTTCTGTTCAAGCGCCATCTAC | 0.21
GATGATTGTTCTCCCAGCTGATGAATTGCTAGAATCGAGTAAACAAATTTTCCTAATCTTTCTGTTCAAGCGCCATCTAC | 0.451

Sequence | binding signal (RPM ratio (pull-down/input))
GATGATTGTTCTCCCAGCTGATGAATTGCTCGGATCGAGTAAACAAATTTTCCTAATCTTTCTGTTCAAGCGCCATCTAC | 0.318
GATGATTGTTCTCCCAGCTGATGAATTGCTAACTTCGAGTAAACAAATTTTCCTAATCTTTCTGTTCAAGCGCCATCTAC | 0.723
GATGATTGTTCTCCCAGCTGATGAATTCACTTCATCGAGTAAACAAATTTTCCTAATCTTTCTGTTCAAGCGCCATCTAC | 0.388
GATGATTGTTCTCCCAGCTGATGAATTTTCGTCATCGAGTAAACAAATTTTCCTAATCTTTCTGTTCAAGCGCCATCTAC | 0.544
GATGATTGTTCTCCCAGCTGATGAATTTTTCTGCTCGAGTAAACAAATTTTCCTAATCTTTCTGTTCAAGCGCCATCTAC | 0.215
GATGATTGTTCTCCCAGCTGATGAATTACTCGTTTCGAGTAAACAAATTTTCCTAATCTTTCTGTTCAAGCGCCATCTAC | 0.339
GATGATTGTTCTCCCAGCTGATGAATTTCCAATGTCGAGTAAACAAATTTTCCTAATCTTTCTGTTCAAGCGCCATCTAC | 0.267
GATGATTGTTCTCCCAGCTGATGAATTAAGAACTTCGAGTAAACAAATTTTCCTAATCTTTCTGTTCAAGCGCCATCTAC | 0.226
GATGATTGTTCTCCCAGCTGATGAATTACCAGCATCGAGTAAACAAATTTTCCTAATCTTTCTGTTCAAGCGCCATCTAC | 0.789
GATGATTGTTCTCCCAGCTGATGAATTTGCCCTGTCGAGTAAACAAATTTTCCTAATCTTTCTGTTCAAGCGCCATCTAC | 0.487
GATGATTGTTCTCCCAGCTGATGAATTACGTACGTCGAGTAAACAAATTTTCCTAATCTTTCTGTTCAAGCGCCATCTAC | 0.524
GATGATTGTTCTCCCAGCTGATGAATTGCGACACTCGAGTAAACAAATTTTCCTAATCTTTCTGTTCAAGCGCCATCTAC | 2.72
GATGATTGTTCTCCCAGCTGATGAATTAGCGCCGTCGAGTAAACAAATTTTCCTAATCTTTCTGTTCAAGCGCCATCTAC | 0.621
GATGATTGTTCTCCCAGCTGATGAATTGTTAGTCTCGAGTAAACAAATTTTCCTAATCTTTCTGTTCAAGCGCCATCTAC | 3.38
GATGATTGTTCTCCCAGCTGATGAATTTTGGTGATCGAGTAAACAAATTTTCCTAATCTTTCTGTTCAAGCGCCATCTAC | 0.708
GATGATTGTTCTCCCAGCTGATGAATTGGAGGTCTCGAGTAAACAAATTTTCCTAATCTTTCTGTTCAAGCGCCATCTAC | 0.401
GATGATTGTTCTCCCAGCTGATGAATTGGATGATTCGAGTAAACAAATTTTCCTAATCTTTCTGTTCAAGCGCCATCTAC | 0.834
GATGATTGTTCTCCCAGCTGATGAATTCCATGCTTCGAGTAAACAAATTTTCCTAATCTTTCTGTTCAAGCGCCATCTAC | 0.587
GATGATTGTTCTCCCAGCTGATGAATTCGTGTCTTCGAGTAAACAAATTTTCCTAATCTTTCTGTTCAAGCGCCATCTAC | 1.11
GATGATTGTTCTCCCAGCTGATGAATTGTGTTCTTCGAGTAAACAAATTTTCCTAATCTTTCTGTTCAAGCGCCATCTAC | 2.39
GATGATTGTTCTCCCAGCTGATGAATTAATAACTTCGAGTAAACAAATTTTCCTAATCTTTCTGTTCAAGCGCCATCTAC | 0.453

Sequence | binding signal (RPM ratio (pull-down/input))
GATGATTGTTCTCCCAGCTGATGAATTCCCCAGGTCGAGTAAACAAATTTTCCTAATCTTTCTGTTCAAGCGCCATCTAC | 0.146
GATGATTGTTCTCCCAGCTGATGAATTTTGAGTCTCGAGTAAACAAATTTTCCTAATCTTTCTGTTCAAGCGCCATCTAC | 1.7
GATGATTGTTCTCCCAGCTGATGAATTATGGACATCGAGTAAACAAATTTTCCTAATCTTTCTGTTCAAGCGCCATCTAC | 0.579
GATGATTGTTCTCCCAGCTGATGAATTATTTCCTTCGAGTAAACAAATTTTCCTAATCTTTCTGTTCAAGCGCCATCTAC | 0.385
GATGATTGTTCTCCCAGCTGATGAATTGCTTTATTCGAGTAAACAAATTTTCCTAATCTTTCTGTTCAAGCGCCATCTAC | 1.09
GATGATTGTTCTCCCAGCTGATGAATTGTTTCATTCGAGTAAACAAATTTTCCTAATCTTTCTGTTCAAGCGCCATCTAC | 0.91
GATGATTGTTCTCCCAGCTGATGAATTCAACTGTTCGAGTAAACAAATTTTCCTAATCTTTCTGTTCAAGCGCCATCTAC | 0.472
GATGATTGTTCTCCCAGCTGATGAATTAGATTGGTCGAGTAAACAAATTTTCCTAATCTTTCTGTTCAAGCGCCATCTAC | 1.93
GATGATTGTTCTCCCAGCTGATGAATTCCACACCTCGAGTAAACAAATTTTCCTAATCTTTCTGTTCAAGCGCCATCTAC | 0.337
GATGATTGTTCTCCCAGCTGATGAATTAGCTGCTTCGAGTAAACAAATTTTCCTAATCTTTCTGTTCAAGCGCCATCTAC | 0.674
GATGATTGTTCTCCCAGCTGATGAATTCTTGCCTTCGAGTAAACAAATTTTCCTAATCTTTCTGTTCAAGCGCCATCTAC | 1.81
GATGATTGTTCTCCCAGCTGATGAATTGTCGCCATCGAGTAAACAAATTTTCCTAATCTTTCTGTTCAAGCGCCATCTAC | 2.3
GATGATTGTTCTCCCAGCTGATGAATTTGTTGCATCGAGTAAACAAATTTTCCTAATCTTTCTGTTCAAGCGCCATCTAC | 7.07
GATGATTGTTCTCCCAGCTGATGAATTACAATGCTCGAGTAAACAAATTTTCCTAATCTTTCTGTTCAAGCGCCATCTAC | 0.958
GATGATTGTTCTCCCAGCTGATGAATTGGTATGCTCGAGTAAACAAATTTTCCTAATCTTTCTGTTCAAGCGCCATCTAC | 1.79
GATGATTGTTCTCCCAGCTGATGAATTTGTAGGATCGAGTAAACAAATTTTCCTAATCTTTCTGTTCAAGCGCCATCTAC | 1.85
GATGATTGTTCTCCCAGCTGATGAATTAAGTCCGTCGAGTAAACAAATTTTCCTAATCTTTCTGTTCAAGCGCCATCTAC | 0.307
GATGATTGTTCTCCCAGCTGATGAATTGATAGAGTCGAGTAAACAAATTTTCCTAATCTTTCTGTTCAAGCGCCATCTAC | 0.361
GATGATTGTTCTCCCAGCTGATGAATTGCTGAATTCGAGTAAACAAATTTTCCTAATCTTTCTGTTCAAGCGCCATCTAC | 0.916
GATGATTGTTCTCCCAGCTGATGAATTCAAGCAATCGAGTAAACAAATTTTCCTAATCTTTCTGTTCAAGCGCCATCTAC | 1.65
GATGATTGTTCTCCCAGCTGATGAATTCGCGCCCTCGAGTAAACAAATTTTCCTAATCTTTCTGTTCAAGCGCCATCTAC | 0.701
